Laboratory results: the supplement of paper PMC11417369
The list shows a part of the results.

System: PF3D7_0420300 AP2 domain 1 (GST-tagged)
Experiment: gcPBM binding intensity (ln(normalized median fluorescence intensity)); higher = stronger DNA binding
Method in brief: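 Plasmodium falciparum DNA-binding domains carrying a GST tag were expressed in E. coli and applied for 1 h, at about 25 μg on average, to an Agilent 4 × 180k array. The array held primer-extended double-stranded 36-bp intergenic genomic probes together with negative controls, and binding took place in 1× PBS with 1% milk, 0.2 mg/ml BSA, 0.5% salmon testes DNA and 0.03% Triton X-100. An Alexa488 anti-GST antibody detected bound protein, and the array was scanned at 488 nm. Binding intensity is taken as the highest Masliner-normalised natural-log median intensity across replicate spots of either probe orientation.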

Row | Sequence | gcPBM binding intensity (ln)
1 | TGGGTGTAGAACAATTGTACTTTGTAAAAATATAAG [XGTACX_site8464] | 9.1
2 | TTTTTTTTCAATGGTTGTACAAAGTAAAACAACAAA [XGTACX_site1582] | 8.84
3 | TTATATATATTTAAAAAAATAACATAAATAAATAAA [CACACA_negctrl_site347] | 8.96
4 | GTAAATATAAACTCAGCACACAAACATATATATGTC [CACACA_site9326] | 9.67
5 | TTAAATAAAAGGTTTAGTACTTAAAATAAGAAATGA [XGTACX_site6341] | 9.14
6 | TTTTATTTATCTTAATGTACACATTTATATATATAT [XGTACX_site8588] | 9.41
7 | TATAATAATTAAAAGTGTACTAAATTTTTACATATA [XGTACX_site2523] | 9.12
8 | CACTTTTTTTTTTACTGTACATATACAAATTAAAAA [XGTACX_site1565] | 9.14
9 | TTGTAATTTATTCAAACACACAATTTGGACCTTTTT [CACACA_site1063] | 9.19
10 | TATTCATAATTTTAATGTACAAAATGGTTTGTAATA [XGTACX_site8493] | 8.95
11 | AAAGATAAATTAAAAAGTACATATTTATTCAATGTA [XGTACX_site8543] | 9.16
12 | AATATATATATATTATCACACACTCACGTTTGACAA [CACACA_site8130] | 9.46
13 | TATGATATATATAATACACACATATACATAAGATCT [CACACA_site1119] | 9.62
14 | ATTATATCATATATATGTACACATATATAACATGAT [XGTACX_site7] | 9.25
15 | TAAAAAAAACGAACAAGTACACATAAAAAAAAATTA [XGTACX_site5982] | 9.58
16 | ATCCATCTTTTAATTTGTACTTATTCTTTTTTCTTT [XGTACX_site5299] | 9.68
17 | ATATATATATGTAATAGTACATATGATAGTTTGTCA [XGTACX_site1545] | 9.3
18 | ATTAGTTTTATATATAGTACATATAATTTTGAAGGT [XGTACX_site7445] | 9.2
19 | AATTTAATATAATGCACACATAAAAAAAAATTCAAA [CACACA_site2062] | 9.22
20 | ATGAAAACCATGACGGGTACTCATTTATTATTTTAT [XGTACX_site6724] | 9.43
21 | ATTTATTTGTTTATTTGTTTATTTGTTTATTTGTTT [CACACA_negctrl_site1386] | 9.82
22 | TTAAGAATCTATACTAGTACATATATGTATACAAGC [XGTACX_site8025] | 9.29

Row | Sequence | gcPBM binding intensity (ln)
23 | TGTAGAACAAAAAATTGTACATATTTGTAAAAAAAA [XGTACX_site3850] | 9.09
24 | ATTGTGTTAATAAAATGTACATTTTCTCTACTTTAA [XGTACX_site1199] | 9.42
25 | TATATATATATGTGTAGTACAACAAATATGAAAAAT [XGTACX_site4059] | 9.54
26 | ACAATATATAAAATATGTACATAATATATATAATGA [XGTACX_site8731] | 9.33
27 | CCTAATTTTATTAGGGTGCATTTTTAGTTAAATATA | 9.01
28 | ATCCACAAATTAACAAGTACATATATATATATATAT [XGTACX_site1267] | 9.02
29 | TAAGTTATATGTACTACACACGTACACAAAATAAGA [CACACA_site9237] | 9.55
30 | TGATGAAAATTTTTCTGTACAAAAAGTATGAAGGTA [XGTACX_site8901] | 9.06
31 | TTATAATTCTATTATCTGTTCTTTTTATATTTTTTT [CACACA_negctrl_site855] | 9.43
32 | TTCTAAACACATTGACAAATTAATATATTACAGCAA [GTGCAC_negctrl_site121] | 9.18
33 | TTATTTTTCAATGAAAAGGATTATATATATATATAT [CACACA_negctrl_site757] | 8.97
34 | AAAATTTATAGTATGGTGCATAAAAATATATATATA | 9.29
35 | TATAAGAAAAATAACACACACATAAACATAAATACA [CACACA_site5536] | 9.87
36 | AAAAAAAAAAAAAAATGTACATAAAAATGATATAAT [XGTACX_site4096] | 9.41
37 | GTATATATATATAAAAGTACATGTTATGAAAAAAAA [XGTACX_site5410] | 9.41
38 | TATATATAGAAACACACACACATATATATATATATA [CACACA_site773] | 9.74
39 | TTTTTTCTCAAAAAAAAAACCTATGGTTATTAAGAT [XGTACX_negctrl_site534] | 8.7
40 | ATTAAGTATATTTCTGCACACAAAAAAAAAAACCAA [CACACA_site9342] | 9.67
41 | ATTATATATATCAGGTGTACGTAAAAAAAATGGACG [XGTACX_site1028] | 9.78
42 | TTTTTTTATTAATGTAGTACAATATAATGTTATATT [XGTACX_site2295] | 9.12
43 | GAGGTCTTTTTTAATGTGCACATATATATATATATA | 9.53
44 | TTTTTTTTTTTTTTTACACACTCCAATAAAAAAGAA [CACACA_site2119] | 8.91
